Data: PMC3032772
Results are given in words; binding and its absence hold for the method and conditions named. Binding seen in cells or lysates may run through a third protein. Some results given as binding are weak or reduced against the parent protein; the word gives no strength.

Amino acid sequences for entries named in this document (tags omitted). A change or cut given only in a name is not applied to a line headed by its entry. Chains listed by the source or under a name are the forms on record and can include a tag or linker. Residues count along the entry.
GST-Cdc42N17 (P60953, form named): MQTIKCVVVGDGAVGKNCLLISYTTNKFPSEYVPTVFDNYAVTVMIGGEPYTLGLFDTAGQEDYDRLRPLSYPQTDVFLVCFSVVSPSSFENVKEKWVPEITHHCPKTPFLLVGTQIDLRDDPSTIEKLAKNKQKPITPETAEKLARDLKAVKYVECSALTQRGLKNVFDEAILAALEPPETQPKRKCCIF
GST-Cdc42V12 (P60953, form named): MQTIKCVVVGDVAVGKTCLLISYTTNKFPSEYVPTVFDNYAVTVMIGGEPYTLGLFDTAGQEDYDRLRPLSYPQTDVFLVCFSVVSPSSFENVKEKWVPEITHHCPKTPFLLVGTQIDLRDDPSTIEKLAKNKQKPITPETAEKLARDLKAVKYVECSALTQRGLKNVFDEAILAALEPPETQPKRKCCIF
GFP-APC^1–1638 (P25054, residues 1-1638): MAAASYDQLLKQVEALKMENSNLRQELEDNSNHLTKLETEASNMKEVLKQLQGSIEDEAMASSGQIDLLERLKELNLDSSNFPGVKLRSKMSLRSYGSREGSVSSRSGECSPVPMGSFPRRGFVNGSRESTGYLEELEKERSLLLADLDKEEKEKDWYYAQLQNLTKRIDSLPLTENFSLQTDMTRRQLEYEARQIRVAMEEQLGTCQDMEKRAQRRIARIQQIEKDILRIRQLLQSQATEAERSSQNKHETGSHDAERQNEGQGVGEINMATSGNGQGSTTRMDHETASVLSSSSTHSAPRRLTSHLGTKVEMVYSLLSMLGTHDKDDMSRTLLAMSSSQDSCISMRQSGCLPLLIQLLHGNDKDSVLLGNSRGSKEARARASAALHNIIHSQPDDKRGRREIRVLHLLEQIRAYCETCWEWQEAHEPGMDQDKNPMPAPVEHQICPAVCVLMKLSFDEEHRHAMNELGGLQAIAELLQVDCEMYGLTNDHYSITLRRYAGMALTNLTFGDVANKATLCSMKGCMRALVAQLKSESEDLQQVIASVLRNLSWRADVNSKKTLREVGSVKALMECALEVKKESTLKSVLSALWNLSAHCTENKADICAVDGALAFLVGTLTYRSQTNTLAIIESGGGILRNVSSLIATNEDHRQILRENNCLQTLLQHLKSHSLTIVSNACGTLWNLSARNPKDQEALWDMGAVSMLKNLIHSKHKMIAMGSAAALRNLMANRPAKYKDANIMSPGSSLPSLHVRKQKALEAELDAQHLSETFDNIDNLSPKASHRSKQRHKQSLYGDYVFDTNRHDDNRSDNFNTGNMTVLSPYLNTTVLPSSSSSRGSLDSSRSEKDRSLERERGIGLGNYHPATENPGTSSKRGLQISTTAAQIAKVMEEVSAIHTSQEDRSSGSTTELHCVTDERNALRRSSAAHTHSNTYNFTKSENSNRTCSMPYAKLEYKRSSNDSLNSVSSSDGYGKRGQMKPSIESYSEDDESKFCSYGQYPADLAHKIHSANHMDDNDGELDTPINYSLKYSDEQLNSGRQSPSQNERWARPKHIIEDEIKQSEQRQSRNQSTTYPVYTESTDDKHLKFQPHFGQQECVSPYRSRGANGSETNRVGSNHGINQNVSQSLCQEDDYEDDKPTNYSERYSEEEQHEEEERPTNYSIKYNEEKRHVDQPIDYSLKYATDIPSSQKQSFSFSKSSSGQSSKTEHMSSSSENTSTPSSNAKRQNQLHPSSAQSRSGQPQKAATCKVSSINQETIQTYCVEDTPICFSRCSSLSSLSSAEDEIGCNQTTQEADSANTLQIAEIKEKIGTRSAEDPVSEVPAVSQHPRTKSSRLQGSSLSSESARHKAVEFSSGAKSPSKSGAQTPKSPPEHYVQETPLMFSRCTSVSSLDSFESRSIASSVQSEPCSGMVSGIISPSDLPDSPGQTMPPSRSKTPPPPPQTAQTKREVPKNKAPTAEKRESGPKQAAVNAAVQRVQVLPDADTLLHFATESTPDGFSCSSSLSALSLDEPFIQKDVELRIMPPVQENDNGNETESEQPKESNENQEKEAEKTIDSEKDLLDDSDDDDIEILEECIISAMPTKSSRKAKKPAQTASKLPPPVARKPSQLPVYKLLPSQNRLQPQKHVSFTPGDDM
^35S-APC^222–653 (P25054, residues 222-653): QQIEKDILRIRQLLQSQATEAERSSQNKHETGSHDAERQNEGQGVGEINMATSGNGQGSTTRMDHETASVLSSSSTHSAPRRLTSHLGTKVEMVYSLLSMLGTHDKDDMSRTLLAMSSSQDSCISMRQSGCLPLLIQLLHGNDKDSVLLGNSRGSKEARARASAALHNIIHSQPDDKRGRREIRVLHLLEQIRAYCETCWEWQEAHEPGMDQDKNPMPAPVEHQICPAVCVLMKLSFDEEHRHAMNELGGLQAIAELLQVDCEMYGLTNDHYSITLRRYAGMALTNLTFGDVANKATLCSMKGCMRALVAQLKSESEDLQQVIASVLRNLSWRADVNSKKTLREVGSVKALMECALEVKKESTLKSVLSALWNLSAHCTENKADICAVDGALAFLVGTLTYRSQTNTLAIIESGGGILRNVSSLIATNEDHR
mRFP-APC^222–453 (P25054, residues 222-453): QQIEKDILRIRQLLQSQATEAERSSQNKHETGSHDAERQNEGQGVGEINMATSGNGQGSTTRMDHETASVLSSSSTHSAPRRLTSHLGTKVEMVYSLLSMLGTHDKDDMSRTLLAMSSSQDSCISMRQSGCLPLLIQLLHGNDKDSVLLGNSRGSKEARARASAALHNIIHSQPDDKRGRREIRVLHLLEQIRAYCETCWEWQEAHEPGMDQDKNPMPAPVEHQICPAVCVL
UniProt Q9UQB8: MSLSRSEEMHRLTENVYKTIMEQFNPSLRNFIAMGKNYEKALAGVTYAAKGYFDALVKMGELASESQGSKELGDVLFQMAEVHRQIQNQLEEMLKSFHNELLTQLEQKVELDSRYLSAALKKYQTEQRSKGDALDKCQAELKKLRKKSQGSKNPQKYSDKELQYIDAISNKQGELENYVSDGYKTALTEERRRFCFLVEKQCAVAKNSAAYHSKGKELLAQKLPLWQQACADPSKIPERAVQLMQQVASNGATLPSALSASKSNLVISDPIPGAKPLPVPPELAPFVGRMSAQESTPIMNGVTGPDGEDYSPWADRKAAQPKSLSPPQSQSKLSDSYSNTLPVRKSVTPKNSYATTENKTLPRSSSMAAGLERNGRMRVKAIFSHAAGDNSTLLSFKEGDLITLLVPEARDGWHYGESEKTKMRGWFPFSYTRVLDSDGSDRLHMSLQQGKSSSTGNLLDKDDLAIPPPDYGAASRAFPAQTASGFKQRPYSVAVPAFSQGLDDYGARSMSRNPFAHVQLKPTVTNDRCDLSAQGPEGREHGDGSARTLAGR

Key:
[1] = target: GFP-Cdc42N17 (UniProt P60953); test: FRET or BRET; acceptor photobleaching FRET (AP-FRET), GFP donor and mRFP acceptor fusions coexpressed in CHO cells, fixed 24 h after transfection; positive FRET: %FE >3%
[2] = target: GST-Cdc42N17 (UniProt P60953); test: pull-down; GST-tagged Cdc42V12, Cdc42N17 or GST bound to glutathione-sepharose beads; 35S-labelled in vitro translated products (reticulocyte lysate); SDS-PAGE, autoradiography; only the target purified
[3] = target: GST-Cdc42V12 (UniProt P60953); test: as above
[4] = target: mRFP-Cdc42V12 (UniProt P60953); test: FRET or BRET; acceptor photobleaching FRET (AP-FRET), GFP donor and mRFP acceptor fusions coexpressed in CHO cells, fixed 24 h after transfection; positive FRET: %FE >3%
[5] = target: GFP-Cdc42V12 (UniProt P60953); test: as above

Substance | binding [2] | binding [3] | other results
mRFP-APC^222–653 (from UniProt P25054 222-653) (domain or fragment) |  |  | binding [1]: no binding
^35S-IRSp53 (from UniProt Q9UQB8 1-552) | no binding | binds | 
GFP-APC^1–1638 (from UniProt P25054 1-1638) (domain or fragment) |  |  | binding [4]: binds
mRFP-APC^222–453 (from UniProt P25054 222-453) (domain or fragment) |  |  | binding [5]: no binding
^35S-APC^222–653 (from UniProt P25054 222-653) (domain or fragment) | no binding | binds | 
